Measurements as given in paper PMC4117426.
Where a chain is given by its changes, count along the chain named. These are yes or no findings as the source states them, for the method shown. Some results given as binding are weak or reduced against the parent protein; the word gives no strength. For some assays here: Where a sequence is shown, tags or fusion partners need not be part of it.

Protein sequences, listed by entry. Tags and fused reporters are not part of them. Lines headed by an entry give the natural chain unless they say otherwise; changes in a name come on top.
UniProt P0A9A6: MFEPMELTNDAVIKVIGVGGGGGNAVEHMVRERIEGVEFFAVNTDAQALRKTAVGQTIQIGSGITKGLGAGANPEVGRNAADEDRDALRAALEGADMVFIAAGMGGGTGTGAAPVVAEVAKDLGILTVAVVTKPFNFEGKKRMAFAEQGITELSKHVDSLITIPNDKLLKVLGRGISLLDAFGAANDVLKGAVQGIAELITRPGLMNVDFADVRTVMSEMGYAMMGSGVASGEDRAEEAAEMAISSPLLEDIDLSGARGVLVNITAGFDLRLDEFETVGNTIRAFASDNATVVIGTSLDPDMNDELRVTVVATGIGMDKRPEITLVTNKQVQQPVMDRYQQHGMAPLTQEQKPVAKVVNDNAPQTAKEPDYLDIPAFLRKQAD

Legend:
[1] = biological target: T1, 6×His-SlmA (E. coli) (UniProt P0C093); test: BLI; biotinylated SBS17-30mer (50 nM) on streptavidin tips, loaded with 4 µM SlmA or SlmA mutant; FtsZ or variants (4 µM, preincubated with 1 mM GDP) or peptides (up to 320 µM) in solution; 1× Pol buffer, room temperature; both purified
T1 sequence: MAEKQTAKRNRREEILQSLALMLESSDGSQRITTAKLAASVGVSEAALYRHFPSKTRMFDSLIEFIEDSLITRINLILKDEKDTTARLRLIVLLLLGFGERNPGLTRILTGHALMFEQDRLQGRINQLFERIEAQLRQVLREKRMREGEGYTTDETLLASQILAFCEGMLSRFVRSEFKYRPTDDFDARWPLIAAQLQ

[2] = biological target: T1, 6×His-SlmA (E. coli); test: BLI; data not shown: 6×-His-SlmA preincubated with SBS17-30mer attached to a Ni-NTA biosensor, FtsZ in solution; both purified
[3] = biological target: T1, 6×His-SlmA (E. coli); test: BLI; competition: SlmA/SBS17-30mer on streptavidin tips; 4 µM FtsZ preincubated with various concentrations of the FtsZ C-terminal peptide; both purified
[4] = biological target: T2, 6×His-SlmA-F65A (E. coli) (UniProt P0C093); test: BLI; biotinylated SBS17-30mer (50 nM) on streptavidin tips, loaded with 4 µM SlmA or SlmA mutant; FtsZ or variants (4 µM, preincubated with 1 mM GDP) or peptides (up to 320 µM) in solution; 1× Pol buffer, room temperature; both purified
T2 sequence: T1 sequence with F65A

[5] = biological target: T3, 6×His-SlmA-R73D (E. coli) (UniProt P0C093); test: as above
T3 sequence: T1 sequence with R73D

[6] = biological target: T1, 6×His-SlmA (E. coli); test: BLI; competition: SlmA/SBS17-30mer on streptavidin tips; 4 µM FtsZ preincubated with various concentrations of ZipA185-328 (with GDP); both purified
[7] = biological target: T4, SlmA-T25 (E. coli) (UniProt P0C093); test: two-hybrid; bacterial two-hybrid (T18/T25) in BTH101; spots on LB plates with X-gal and 250 µM IPTG, 30°C, 36 hours
T4 sequence: T1 sequence

Row | binding [1] | binding [7] | Substance | other results
1 | no binding (tested: 4 µM) |  | 6×His-FtsZ320 (from UniProt P0A9A6 1-320) (domain or fragment) | 
2 | binds |  | FtsZ (from UniProt P0A9A6 1-383) | binding [2]: binds; binding [3]: binds; binding [4]: no binding (tested: 4 µM); binding [5]: no binding (tested: 4 µM); binding [6]: binds
3 |  | binds weakly | FtsZ-D86N-T18 (from UniProt P0A9A6 1-383) | 
4 | no binding (tested: 4 µM) |  | FtsZ-I374K (from UniProt P0A9A6 1-383) | 
5 |  | binds weakly | FtsZ-K190V-T18 (from UniProt P0A9A6 1-383) | 
6 | no binding (tested: 4 µM) |  | FtsZ-L378E (from UniProt P0A9A6 1-383) | 
7 |  | binds weakly | FtsZ-T18 (from UniProt P0A9A6 1-383) | 
8 | no binding (tested: 320 µM) |  | Ztail-I374K (from UniProt P0A9A6 370-383) (peptide) | 
9 | no binding (tested: 320 µM) |  | Ztail-L378E (from UniProt P0A9A6 370-383) (peptide) | 
